The test has as its system influenza A/PuertoRico/8/34 (H1N1). The test is described as follows: Activity against the influenza virus, virus titer reduction in MDCK cells (hemagglutination). As to conditions: for IC50: Influenza A virus, H1N1, MDCK, MDCK cells, influenza A/PuertoRico/8/34 (H1N1), MOI 0.01, mean±SD, read-out: IC50 (A, H1N1); for SI (selectivity index): ratio of CC50 to IC50.

≈ marks a conversion by molar mass, not a printed value. Structures can show the parent of a compound that is named as a salt.

The values that follow come from patent publication US20240174629A1 (OTCPHARM JSC, priority 2021, published 2024).

As a reminder, the IC50 is the midpoint of a concentration-inhibition curve. As for `COC(=O)c1c(N(Cc2ccccc2)C(C)=O)sc2c(CN(C)C)c(O)ccc12` [Example 50, Methyl 2-[acelyl (benzyl)amino-7-[(dimethylamino)methyl]-6-hydroxy-1-benzothiophene-3-carboxylate], the IC50 came out at 0.6 ± 0.6 µg/mL (≈ 1.45 µM) and the “SI (selectivity index)” value is 303.
Taken in the same sequence, the figures for `COC(=O)c1c(N(Cc2ccccc2Cl)C(C)=O)sc2c(CN(C)C)c(O)ccc12` [Example 51] were 1 µg/mL (≈ 2.24 µM) and 300.
For `COC(=O)c1c(N(Cc2cccc(F)c2)C(C)=O)sc2c(CN(C)C)c(O)ccc12` [Example 53], the 50% inhibitory concentration (IC50) was found to be 3 µg/mL (≈ 6.97 µM) and the “SI (selectivity index)” value is recorded as 100.
Taken in the same sequence, the figures for `COC(=O)c1c(N(Cc2ccc(F)cc2F)C(C)=O)sc2c(CN(C)C)c(O)ccc12` [Example 55] were 36 ± 4.1 µg/mL (≈ 80.3 µM) and 8.
Taken in the same sequence, the figures for `COC(=O)c1c(N(CCc2ccccc2F)C(C)=O)sc2c(CN(C)C)c(O)ccc12` [Example 56, Methyl 2-{acetyl[2-(2-fluorophenyl)ethyl]amino}-7-[(dimethylamino)methyl]-6-hydroxy-1-benzothiophene-3-carboxylate] were 3.3 ± 0.4 µg/mL (≈ 7.42 µM) and 91.
As for `COC(=O)c1c(N(Cc2ccccc2C)C(C)=O)sc2c(CN(C)C)c(O)ccc12` [Example 58], the IC50 stood at 19 ± 2.2 µg/mL (≈ 44.5 µM) and the “SI (selectivity index)” value worked out at 16.
Taken in the same sequence, the figures for `COC(=O)c1c(N(Cc2ccccc2C(F)(F)F)C(C)=O)sc2c(CN(C)C)c(O)ccc12` [Example 59] were 1 µg/mL (≈ 2.08 µM) and 300.
Take `COC(=O)c1c(N(Cc2ccccc2C#N)C(C)=O)sc2c(CN(C)C)c(O)ccc12` [Example 60]: the IC50 was 4 µg/mL (≈ 9.14 µM) and the “SI (selectivity index)” value was 75.
Taken in the same sequence, the figures for `COC(=O)c1c(N(Cc2ccc(F)cc2)C(C)=O)sc2c(CN(C)C)c(O)ccc12` [Example 62, Methyl 2-[acetyl(4-fluorobenzyl)amino-7-[(dimethylamino)methyl]-6-hydroxy-1-benzothiophene-3-carboxylate hydrochloride] were 11.2 ± 1.3 µg/mL and 8.
Take `CCN(CC)Cc1c(O)ccc2c(C(=O)OC)c(N(Cc3ccccc3)C(C)=O)sc12` [Example 64, hydrochloride]: the IC50 was 25.3 ± 3.6 µg/mL and the “SI (selectivity index)” value was 6.
Taken in the same sequence, the figures for `COC(=O)c1c(N(Cc2ccccc2)C(C)=O)sc2c(CN3CCN(C)CC3)c(O)ccc12` [Example 65, Methyl 2-[acetyl(benzyl)amino-6-hydroxy-7-[(4-methylpiperazin-1-yl)methyl]-1-benzothiophene-3-carboxylate hydrochloride] were 5.9 ± 0.6 µg/mL and 3.
In the case of `CC(=O)N(Cc1ccccc1)c1sc2c(Cl)c(O)ccc2c1C(=O)O` [Example 66, 2-[acetyl(benzyl)amino]-7-chloro-6-hydroxy-1-benzothiophene-3-carboxylic acid], the IC50 was 5.3 ± 0.9 µg/mL (≈ 14.1 µM) and the “SI (selectivity index)” value was determined as 57.
Regarding `CC(=O)N(Cc1ccccc1)c1sc2cc(O)ccc2c1C(=O)O` [Example 67, 2-[acetyl(benzyl)amino]-6-hydroxy-1-benzothiophene-3-carboxylic acid], the IC50 stood at 160 ± 19 µg/mL (≈ 469 µM) and the “SI (selectivity index)” value is given as 2.
Taken in the same sequence, the figures for `CC(=O)N(Cc1ccccc1Cl)c1sc2c(Cl)c(O)ccc2c1C(=O)O` [Example 68, 2-[acetyl(2-chlorobenzyl)amino]-7-chloro-6-hydroxy-1-benzothiophene-3-carboxylic acid] were 23 ± 3 µg/mL (≈ 56.1 µM) and 3.
